We go through five molecules from PubChem BioAssay (NCI).

In this experiment the test system is NCI-H322M lung. Description: NCI tumour cell line growth inhibition, 48 h.

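48-hour exposure; five concentrations; linearly interpolated endpoints. Abbreviation: GI50, concentration required for 50% inhibition of growth. TGI denotes the concentration required for complete inhibition of growth.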

In the case of `Clc1cccc(N/N=C/c2c[nH]c3ccccc23)n1`, the GI50 is 11.4 µM and the TGI amounted to 25.4 µM.

`OC(c1ccccc1)(c1ccccc1)C1CCN(c2ccc3nnc(Cl)n3n2)CC1`: the GI50 is 19.5 µM and the TGI came to 57.4 µM.

`Nc1n[nH]c2cccc(C#Cc3cccc(NC(=O)Nc4cc(C(F)(F)F)cc(C(F)(F)F)c4)c3)c12`: the GI50 is 3.48 µM and the TGI worked out at 13 µM.

Consider `C=CC[Se]C(=O)c1ccc(C(=O)[Se]CC=C)s1`, for which the GI50 is 0.11 µM and the TGI came out at 0.872 µM.

Consider `Cc1ccc(C(=O)Nc2ccc(-n3ccnc3)c(C(F)(F)F)c2)cc1C#Cc1cnc2cccnn12`, for which the GI50 was 3.4 µM and the TGI was over 45.8 µM.
